Assay results reported in the supplement of paper PMC8728848.
This is one part of the list.

How the values were obtained:
Experiment in all cases: glycan array binding signal (z-score within array); higher = stronger binding
Conditions in all cases: glycan notation: IUPAC condensed, linker removed
[1] = molecular target: Gal(b1-4)GlcNAc(b1-3)Gal(b1-4)GlcNAc(b1-3)[Gal(b1-4)GlcNAc(b1-3)Gal(b1-4)GlcNAc(b1-6)]GalNAc
Method in brief: (§1)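 Glycan array data came from 3228 arrays in the Consortium for Functional Glycomics database, and only arrays with an available protein sequence were kept. Glycan names were put into IUPAC-condensed notation, and columns mapping to the same glycan were averaged. The binding signal is a within-array Z-score, averaged across arrays of one protein sequence run at different concentrations or buffers and across linkers. A negative Z-score can be read as non-binding.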

[2] = molecular target: Gal(b1-4)GlcNAc(b1-3)Gal(b1-4)GlcNAc(b1-6)[Gal(b1-3)]GalNAc
Method in brief: as §1

[3] = molecular target: Gal(b1-4)GlcNAc(b1-3)Gal(b1-4)[Fuc(a1-3)]GlcNAc(b1-3)Gal(b1-4)[Fuc(a1-3)]GlcNAc
Method in brief: as §1

[4] = molecular target: Gal(b1-4)GlcNAc(b1-3)GalNAc
Method in brief: as §1

[5] = molecular target: Gal(b1-4)GlcNAc(b1-3)[Fuc(a1-3)GlcNAc(b1-6)]Gal(b1-4)Glc
Method in brief: as §1

[6] = molecular target: Gal(b1-4)GlcNAc(b1-3)[Gal(b1-4)GlcNAc(b1-6)]Gal(b1-4)GlcNAc
Method in brief: as §1

[7] = molecular target: Gal(b1-4)GlcNAc(b1-3)[Gal(b1-4)GlcNAc(b1-6)]GalNAc
Method in brief: as §1

[8] = molecular target: Gal(b1-4)GlcNAc(b1-3)[GlcNAc(b1-6)]Gal(b1-4)GlcNAc
Method in brief: as §1

[9] = molecular target: Gal(b1-4)GlcNAc(b1-6)Gal(b1-4)GlcNAc
Method in brief: as §1

[10] = molecular target: Gal(b1-4)GlcNAc(b1-6)Gal(b1-4)GlcNAc(b1-6)GalNAc
Method in brief: as §1

[11] = molecular target: Gal(b1-4)GlcNAc(b1-6)GalNAc
Method in brief: as §1

[12] = molecular target: Gal(b1-4)GlcNAc(b1-6)[Gal(b1-3)]GalNAc
Method in brief: as §1

[13] = molecular target: Gal(b1-4)GlcNAc(b1-6)[Gal(b1-3)]GlcNAc
Method in brief: as §1

[14] = molecular target: Gal(b1-4)GlcNAc(b1-6)[Gal(b1-4)GlcNAc(b1-3)]GalNAc
Method in brief: as §1

Gal(b1-4)GlcNAc6P = molecular target: Gal(b1-4)GlcNAc6P
Method in brief: as §1

Gal(b1-6)Gal = molecular target: Gal(b1-6)Gal
Method in brief: as §1

Gal3S(b1-3)GalNAc = molecular target: Gal3S(b1-3)GalNAc
Method in brief: as §1

Gal3S(b1-3)GlcNAc = molecular target: Gal3S(b1-3)GlcNAc
Method in brief: as §1

[15] = molecular target: Gal3S(b1-3)[Fuc(a1-4)]GlcNAc
Method in brief: as §1

Gal3S(b1-4)Glc = molecular target: Gal3S(b1-4)Glc
Method in brief: as §1

Gal3S(b1-4)Glc6S = molecular target: Gal3S(b1-4)Glc6S
Method in brief: as §1

Gal3S(b1-4)GlcNAc = molecular target: Gal3S(b1-4)GlcNAc
Method in brief: as §1

Gal3S(b1-4)GlcNAc6S = molecular target: Gal3S(b1-4)GlcNAc6S
Method in brief: as §1

[16] = molecular target: Gal3S(b1-4)[Fuc(a1-3)]Glc6S
Method in brief: as §1

[17] = molecular target: Gal3S(b1-4)[Fuc(a1-3)]GlcNAc
Method in brief: as §1

[18] = molecular target: Gal3S(b1-4)[Fuc(a1-3)]GlcNAc6S
Method in brief: as §1

Gal3S4S(b1-4)GlcNAc = molecular target: Gal3S4S(b1-4)GlcNAc
Method in brief: as §1

Gal3S6S(b1-4)GlcNAc = molecular target: Gal3S6S(b1-4)GlcNAc
Method in brief: as §1

Gal3S6S(b1-4)GlcNAc6S = molecular target: Gal3S6S(b1-4)GlcNAc6S
Method in brief: as §1

Gal4S(b1-4)GlcNAc = molecular target: Gal4S(b1-4)GlcNAc
Method in brief: as §1

Gal4S6S(b1-4)GlcNAc = molecular target: Gal4S6S(b1-4)GlcNAc
Method in brief: as §1

Gal6P(b1-4)GlcNAc = molecular target: Gal6P(b1-4)GlcNAc
Method in brief: as §1

Gal6S(b1-3)GlcNAc = molecular target: Gal6S(b1-3)GlcNAc
Method in brief: as §1

Gal6S(b1-3)GlcNAc6S = molecular target: Gal6S(b1-3)GlcNAc6S
Method in brief: as §1

Gal6S(b1-4)Glc = molecular target: Gal6S(b1-4)Glc
Method in brief: as §1

Gal6S(b1-4)Glc6S = molecular target: Gal6S(b1-4)Glc6S
Method in brief: as §1

Gal6S(b1-4)GlcNAc = molecular target: Gal6S(b1-4)GlcNAc
Method in brief: as §1

Gal6S(b1-4)GlcNAc6S = molecular target: Gal6S(b1-4)GlcNAc6S
Method in brief: as §1

B1: UEA-I (Ulex europaeus), P22972 (protein)
chain: SDDLSFKFKNFSQNGKDLSFQGDASVIETGVLQLNKVGNNLPDETGGIARYIAPIHIWNCNTGEVASFITSFSFFMETSANPKAATDGLTFFLAPPDSPLRRAGGYFGLFEDTKDNDSSYQTVAVEFDTIGSPVNFDDPGFPHIGIDVNRVKSINAERWNKRYGLNNVANVEIIYEASSKTLTASLTYPSDQTSISVTSIVDLKEILPEWVSVGFSGGTYIGRQATHEVLNWYFTSNLINTNS
glycan array binding signal (z-score) [1]: 0.47
glycan array binding signal (z-score) [2]: 0.232
glycan array binding signal (z-score) [3]: -0.182
glycan array binding signal (z-score) [4]: -0.16
glycan array binding signal (z-score) [5]: -0.154
glycan array binding signal (z-score) [6]: -0.08
glycan array binding signal (z-score) [7]: -0.196
glycan array binding signal (z-score) [8]: -0.208
glycan array binding signal (z-score) [9]: -0.195
glycan array binding signal (z-score) [10]: -0.226
glycan array binding signal (z-score) [11]: -0.11
glycan array binding signal (z-score) [12]: -0.084
glycan array binding signal (z-score) [13]: -0.588
glycan array binding signal (z-score) [14]: -0.14
glycan array binding signal (z-score) (Gal(b1-4)GlcNAc6P): -0.15
glycan array binding signal (z-score) (Gal(b1-6)Gal): -0.224
glycan array binding signal (z-score) (Gal3S(b1-3)GalNAc): -0.206
glycan array binding signal (z-score) (Gal3S(b1-3)GlcNAc): -0.201
glycan array binding signal (z-score) [15]: -0.152
glycan array binding signal (z-score) (Gal3S(b1-4)Glc): -0.175
glycan array binding signal (z-score) (Gal3S(b1-4)Glc6S): -0.125
glycan array binding signal (z-score) (Gal3S(b1-4)GlcNAc): -0.213
glycan array binding signal (z-score) (Gal3S(b1-4)GlcNAc6S): 0.289
glycan array binding signal (z-score) [16]: -0.009
glycan array binding signal (z-score) [17]: -0.24
glycan array binding signal (z-score) [18]: -0.212
glycan array binding signal (z-score) (Gal3S4S(b1-4)GlcNAc): -0.204
glycan array binding signal (z-score) (Gal3S6S(b1-4)GlcNAc): -0.202
glycan array binding signal (z-score) (Gal3S6S(b1-4)GlcNAc6S): -0.203
glycan array binding signal (z-score) (Gal4S(b1-4)GlcNAc): -0.228
glycan array binding signal (z-score) (Gal4S6S(b1-4)GlcNAc): -0.142
glycan array binding signal (z-score) (Gal6P(b1-4)GlcNAc): -0.279
glycan array binding signal (z-score) (Gal6S(b1-3)GlcNAc): -0.33
glycan array binding signal (z-score) (Gal6S(b1-3)GlcNAc6S): -0.28
glycan array binding signal (z-score) (Gal6S(b1-4)Glc): -0.199
glycan array binding signal (z-score) (Gal6S(b1-4)Glc6S): -0.098
glycan array binding signal (z-score) (Gal6S(b1-4)GlcNAc): -0.253
glycan array binding signal (z-score) (Gal6S(b1-4)GlcNAc6S): -0.257
